Screen size: about 420,000 compounds; about 50,000 (12%) were called active. Inconclusive results, whose numbers are uncertain, are shown with a selection of clear calls. The call rests on the fitted dose curve; in most records, active means well fitted inhibition curve with a large enough effect; inconclusive means small, poorly fitted or top-dose-only effect; inactive means flat fitted curve, though single readings scatter. Potencies of inconclusive entries are left out as doubtful fits.
Experiment: qHTS for Inhibitors of human tyrosyl-DNA phosphodiesterase 1 (TDP1): qHTS in cells in presence of CPT; further: nearly all actives have a fitted effect of over 55% in size
Conditions: chicken DT40 Tdp1-/-;hTDP1 cells + 20 nM CPT, ATP luminescence, 48 h; series mostly up to 46.2 µM
Summary of the method: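 Chicken DT40 Tdp1-/- cells stably complemented with human TDP1 were seeded at 400 cells/well in medium containing 20 nM camptothecin, exposed to pin-transferred compounds, and grown at 37 °C for at least 48 hr. Viability was read as ATP luminescence.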
Potency means the concentration at half of the fitted maximal effect; tags describe the fitted curve by direction and shape.

Q: For O=C(Nc1cccc(Cl)c1)N(Cc1nc2ccccc2c(=O)[nH]1)C1CCCC1, which Potency is on record?
A: Its Potency is “inactive”.

Q: For Oc1c(C(c2ccco2)N2CCN(C(c3ccccc3)c3ccccc3)CC2)sc2ncnn12 (stereo not drawn), which Potency is on record?
A: Its Potency is inconclusive [inhibitor, single point].

Q: For COc1ccc(-c2cc3c(c4c2ccn4C)C2CCC3C2)cc1 (stereo not drawn), which Potency is on record?
A: The Potency was inconclusive [inhibitor, single point].

Q: For CCOC(=O)c1ccc2[nH]c(C)c(C)c2c1, which Potency is on record?
A: Its Potency is inconclusive [inhibitor, single point].

Q: Which Potency does the source give for CCc1cc(-c2[nH]ncc2-c2ccc(OC)cc2)c(O)cc1O here?
A: Its Potency is inconclusive [inhibitor, partial curve, poor fit].

Q: With O=C(N/N=C/c1ccc([N+](=O)[O-])cc1)c1ccccc1OCc1ccccc1 as the molecule, how does the Potency read?
A: Its Potency is “inactive”.

Q: Which Potency does the source give for N#Cc1nc(COc2ccc(Cl)cc2)oc1NCc1ccc2c(c1)OCO2 here?
A: Its Potency is inconclusive [inhibitor, single point].

Q: With O=C(Nc1ccccc1C(F)(F)F)N1CCC(n2c(=O)[nH]c3ccccc32)CC1 as the molecule, how does the Potency read?
A: Its Potency is “inactive”.

Q: With CN1CCN(C(=O)c2ccccc2Nc2ccc(SC(F)F)cc2)CC1 as the molecule, how does the Potency read?
A: The Potency was inconclusive [inhibitor, single point].

Q: With COc1cc(C(=O)Nc2nc(-c3ccc(C)cc3)cs2)ccc1OCC(=O)N1CCOCC1 as the molecule, how does the Potency read?
A: The Potency was active: 23.1 µM.

Q: Which Potency does the source give for N#CC1=C(N)NC(SCc2ccc(F)cc2)=C(C#N)C12CCCCC2 here?
A: Its Potency is active: 23.1 µM.

Q: Which Potency does the source give for OC(c1ccc2ccccc2n1)c1c(Cl)cccc1Cl (stereo not drawn) here?
A: Its Potency is inconclusive [inhibitor, single point].

Q: For CCN(CC)S(=O)(=O)c1ccc(Cl)c(C(=O)Oc2cccc(-c3cnc4ccccc4n3)c2)c1, which Potency is on record?
A: The Potency was inconclusive [inhibitor, single point].

Q: Which Potency does the source give for C/C(=N/Nc1nc(-c2ccccc2)cc(-c2ccc(F)cc2)n1)c1cccc(N)c1 here?
A: Its Potency is inconclusive [inhibitor, single point].

Q: Which Potency does the source give for CC1ON=C(c2ccc(F)cc2)NC1=O (stereo not drawn) here?
A: Its Potency is “inactive”.

Q: Which Potency does the source give for COc1ccc(CNc2ccc(Br)cc2)cc1 here?
A: Its Potency is inconclusive [inhibitor, single point].

Q: With COC(=O)c1scc(-c2ccc(C)cc2)c1S(=O)(=O)Nc1cc(C)ccc1OC as the molecule, how does the Potency read?
A: Its Potency is inconclusive [inhibitor, single point].

Q: Which Potency does the source give for Cc1cccc(Oc2cnn(C(C)(C)C)c(=O)c2Cl)c1 here?
A: Its Potency is inconclusive [inhibitor, single point].

Q: With Cc1ccc(NC(=O)OCCN2CCN(Cc3ccccc3)CCC2=O)cc1C as the molecule, how does the Potency read?
A: The Potency was inconclusive [inhibitor, partial curve].

Q: Which Potency does the source give for Cc1cccc(NC(=O)Cn2c(=O)n(CCCCCC(=O)NCc3ccc4c(c3)OCO4)c(=O)c3sccc32)c1 here?
A: The Potency was inconclusive [inhibitor, single point].

Q: With C/C(=N\Nc1cc(N2CCOCC2)nc(C)n1)c1cccc([N+](=O)[O-])c1 as the molecule, how does the Potency read?
A: The Potency was active: 16.4 µM.

Q: With O=C(CSc1nnc(-c2ccccc2)n1-c1ccccc1)c1ccc[nH]1 as the molecule, how does the Potency read?
A: The Potency was inconclusive [inhibitor, partial curve, poor fit].

Q: Which Potency does the source give for COc1ccccc1C(=O)Nc1sc(Nc2ccccc2)nc1C(N)=O here?
A: Its Potency is active: 11.6 µM.

Q: For N=c1c2c(ncn1CCCO)Oc1ccc3ccccc3c1C2c1ccccc1 (stereo not drawn), which Potency is on record?
A: Its Potency is inconclusive [inhibitor, single point].

Q: Which Potency does the source give for COc1ccc(NC(=O)NC(C)(C(F)(F)F)C(F)(F)F)cc1 here?
A: The Potency was inconclusive [inhibitor, single point].

Q: Which Potency does the source give for COc1ccccc1NC(=O)c1cc2ccccc2o/c1=N\O here?
A: The Potency was active: 20.6 µM.

Q: For CC1(C)CC(=O)C=C(c2ccc(COC(=O)c3ccccc3)cc2)C1=O, which Potency is on record?
A: Its Potency is “inactive”.

Q: With COc1cc(OC)c2ccc(=O)oc2c1C(CCN1CCCC(C)C1)c1ccc(N(C)C)cc1 (stereo not drawn) as the molecule, how does the Potency read?
A: The Potency was active: 20.6 µM.

Q: Which Potency does the source give for Cc1cccc(S(=O)(=O)N[C@@H]2CC[C@@H](CCNS(=O)(=O)c3ccccc3F)O[C@@H]2CO)c1 here?
A: Its Potency is inconclusive [inhibitor, single point].

Q: For COc1ccccc1-c1nnc(NC(=O)Cc2ccccc2)o1, which Potency is on record?
A: The Potency was “inactive”.

Q: For Cc1cc(C)c2c(NC(=O)c3ccccc3)c(C(=O)Nc3ccc(F)cc3)sc2n1, which Potency is on record?
A: Its Potency is inconclusive [inhibitor, partial curve].

Q: For Cc1ccc(C(=O)CSc2nc(C)cc(C)c2C(N)=O)cc1, which Potency is on record?
A: Its Potency is inconclusive [inhibitor, single point].

Q: Which Potency does the source give for O=C(Cc1nc2ccccc2[nH]1)N1CCC(n2c(C3CCC3)nc3cccnc32)CC1 here?
A: Its Potency is “inactive”.

Q: With COc1ccc(CCNc2ncnc3sccc23)cc1OC as the molecule, how does the Potency read?
A: Its Potency is active: 0.164 µM.

Q: Which Potency does the source give for Cc1cc(SCC(=O)NC(=O)NCc2ccco2)nc2c(C)cccc12 here?
A: The Potency was inconclusive [inhibitor, partial curve].

Q: For O=C1C=C(c2cccc(CO)c2)C[C@@H](c2ccc(Cl)cc2)C1, which Potency is on record?
A: The Potency was inconclusive [inhibitor, single point].

Q: For Cc1cc2cc(CN(C(=O)C3CC3)C3CCCC3)c3nnnn3c2cc1C, which Potency is on record?
A: The Potency was inconclusive [inhibitor, partial curve].

Q: With Cc1ccc(CNC(=O)CCCC(=O)Nc2cc(C)on2)cc1 as the molecule, how does the Potency read?
A: The Potency was inconclusive [inhibitor, single point].

Q: Which Potency does the source give for O=C(NCc1ccccc1Cl)c1cccc(OC2CCN(C(=O)C3CC3)CC2)c1 here?
A: The Potency was active: 16.4 µM.

Q: With CCCNC(=O)C1CCC(Cn2c(=O)c3sccc3n(CC(=O)NCc3cccc(OC)c3OC)c2=O)CC1 (stereo not drawn) as the molecule, how does the Potency read?
A: Its Potency is inconclusive [inhibitor, partial curve].

Q: With Cc1cc(C)nc(N/N=C/c2ccccc2OCc2ccc([N+](=O)[O-])cc2)n1 as the molecule, how does the Potency read?
A: Its Potency is inconclusive [inhibitor, single point].

Q: With C[C@@H]1CN(Cc2ccc3c(c2)CN(Cc2coc4ccccc4c2=O)CCO3)C[C@H](C)O1 as the molecule, how does the Potency read?
A: Its Potency is inconclusive [inhibitor, single point].

Q: For Cc1ccc(C(=O)N/C(=C\c2ccc(Cl)cc2)C(=O)NC2CCCCC2)cc1, which Potency is on record?
A: Its Potency is inconclusive [inhibitor, single point].
